Experimental data taken from PubChem BioAssay AID624296 (National Center for Advancing Translational Sciences (NCATS), 2012).
Among all 350,000 compounds or so, about 9,900 (2.8%) were called active. Inconclusive results, whose numbers are uncertain, are shown with a selection of clear calls. Calls follow the shape of the dose curve; as a rule, active = well fitted activation curve with a large enough effect; inconclusive = small, poorly fitted or top-dose-only effect; inactive = no such curve, though single readings can be large or run the other way. Potencies of inconclusive entries are left out as doubtful fits. Where a structure was tested more than once in an assay, its records may differ in their call.

Experiment: A quantitative high throughput screen for small molecules that induce DNA re-replication in MCF 10a normal breast cells. Also: nearly all actives have a fitted effect of over 50% in size. As to activity, positive = re-replication: % of control where 0% means no effect.
Conditions: MCF 10A DNA re-replication, Hoechst nuclear intensity, 48 h; activity, positive = re-replication: at 46.1 µM (top of the series)
Potency is read from the fitted curve at half-maximal effect; tags tell the direction and shape of the fitted curve.

SMILES | Potency | activity, positive = re-replication
NC(=O)c1ccc(N=Cc2ccc([N+](=O)[O-])s2)cc1 | active: 14.6 µM | 
COC(=O)[C@H]1[C@H]2C[C@@H]3c4[nH]c5cc(OC)ccc5c4CCN3C[C@H]2C[C@@H](OC(=O)c2cc(OC)c(OC)c(OC)c2)[C@@H]1OC | active: 29.9 µM | 
Cc1ccc(/C=C2/CNC/C(=C/c3ccc(C)cc3)C2=O)cc1 | inconclusive [activator, full curve, poor fit] | 
Cc1ccc(C2(C)NC(=O)N(CC(=O)Nc3ccc(-c4nc5ccc(C)cc5s4)cc3)C2=O)cc1 (stereo not given) | active: 18.4 µM | 
COc1ccc(OC)c(C2c3[nH]c4ccccc4c3C[C@H]3C(=O)N(CCCOC(C)C)CC(=O)N23)c1 (stereo not given in full) |  | inactive: 5.35%
CCOc1ccc(N(CC(=O)Nc2ccccc2OCC)S(=O)(=O)c2c(C)noc2C)cc1 | active: 1.3 µM | 
Cc1ccc(C(=O)NC(=S)Nc2ccccc2N2CCCC2)cc1[N+](=O)[O-] | active: 2.59 µM | 
CC(=O)c1ccc(-c2ccc(/C=C(/Sc3n[nH]c(C)n3)C(=O)O)o2)cc1 | inconclusive [activator, single point] | 
Cc1ccc(N2C(=O)N3[C@@H]4c5ccccc5OC[C@@H]4[C@@H](c4ccccc4)[C@@]3(C)C2=O)cc1 |  | inactive: 4.75%
CCN(CC)CCNc1oc(-c2ccccc2)nc1S(=O)(=O)c1ccccc1 |  | inactive: 12.8%
O=C(/C=C/c1ccco1)Nc1ccc(-c2nc3ccccc3[nH]2)cc1 | active: 2.59 µM | 
CCN1C(=O)[C@@H]2[C@@H](c3ccc(-c4ccc(C(C)=O)cc4)cc3)N3CCCC[C@@]3(C(=O)OC)[C@@H]2C1=O |  | inactive: -7.55%
O=C(NNc1nc2c(F)cccc2s1)c1cc(=O)c2ccccc2o1 | inconclusive [activator, partial curve, poor fit] | 
COc1cc2c(cc1NC(=O)c1ccc(C(C)(C)C)cc1)CCCC2 | inconclusive [activator, partial curve, poor fit] | 
COCCNC(=S)N/N=C(\C)c1cccc(OC)c1 |  | inactive: -15.1%
CCC1(C)Cc2c(sc3nnn(CC(=O)Nc4cccc5ccccc45)c(=O)c23)CO1 (stereo not given) | inconclusive [activator, partial curve, poor fit] | 
COc1cc(OC)c2c(-c3cccc(-c4ccc(C#N)cc4)c3)cc(=O)oc2c1 | inconclusive [activator, full curve, poor fit] | 
CN1CCN(C2=Cc3ccccc3Sc3cc(F)c(Cl)cc32)CC1 | inconclusive [activator, single point] | 
CCN(c1ccccc1)S(=O)(=O)c1ccc2ccccc2c1 | inconclusive [activator, partial curve, poor fit] | 
CCN(CC)S(=O)(=O)c1cccc(-n2c(O)c(C=Nc3ccccc3C(=O)O)c3ccccc3c2=O)c1 |  | inactive: -1.61%
CCOC(=O)C1CCCN(Cc2c(Cl)cccc2Cl)C1 (stereo not given) | inconclusive [activator, single point] | 
Cc1ccc(S(=O)(=O)NC(=O)NC2CCCCCCC2)cc1 |  | inactive: -4.82%
Cn1c2ccccc2c(=O)c2c(=O)n(Cc3ccco3)c(COc3ccccc3)nc21 | inconclusive [activator, full curve, poor fit] | 
Cc1cc(C(=O)N2CCN(c3cc(Cl)ccc3C)CC2)on1 |  | inactive: -0.0374%

SMILES | Potency | activity, positive = re-replication
Cn1c(CCN2CCCC2)nc2cc(NS(=O)(=O)c3ccccc3)ccc21 | inconclusive [activator, single point] | 
CCc1ccc(C(=O)c2oc3nc(C)cc(C)c3c2N)cc1 | active: 7.31 µM | 
CCOC(=O)c1c(-c2ccc(C)cc2)csc1NC(=O)/C(C#N)=C/c1ccc(O)c(OC)c1 | active: 20.6 µM | 
CCN1CCN(c2ccccc2NC(=O)C(C)Oc2ccc(C(C)=O)cc2)CC1 (stereo not given) |  | inactive: 26%
Cc1cc(C(=O)COC(=O)Cn2cnc3c2c(=O)n(C)c(=O)n3C)c(C)n1C | inconclusive [activator, partial curve, poor fit] | 
Cc1ccc(S(=O)(=O)N(C)CC(=O)NCC(=O)Nc2ccc(F)c(F)c2F)cc1 |  | inconclusive: 94.9% [activator]
Cc1nc2cc(C(F)(F)F)ccc2n1CCNc1nc(-c2ccc([N+](=O)[O-])c(Cl)c2)cs1 |  | inactive: 7.98%
CN(C)c1cccc(C(=O)NNC(=O)CSc2ccccc2)c1 |  | inactive: 7.48%
CC(=O)Nc1nc2ccccc2n1Cc1ccccc1C | inconclusive [activator, partial curve] | 
COc1ccccc1N1CCN(/N=C/c2cccc(Cl)c2)CC1 | inconclusive [activator, partial curve, poor fit] | 
CCCCCn1c(N)c(-c2nc3ccccc3s2)c2c([N+](=O)[O-])nn(CC)c(=O)c21 | active: 2.91 µM | 
O=C(NCc1ccccc1)C1CCN(S(=O)(=O)N2CCOCC2)CC1 |  | inactive: 2.45%
CCCc1nc(SCC(=O)N2CCCC2)c2c(=O)n(C)c(=O)n(C)c2n1 |  | inactive: 2.71%
CCc1ccc(CC)c(S(=O)(=O)Nc2ccc(O)c(C(=O)O)c2)c1 | inconclusive [activator, partial curve, poor fit] | 
O=c1cc(NS(=O)(=O)c2ccccc2)nc(SCc2ccccc2Cl)[nH]1 | inconclusive [activator, single point] | 
CCOCCc1nnc(NC(=O)Cc2ccccc2)s1 | inconclusive [activator, single point] | 
CCOc1ccccc1NC(=O)c1nc[nH]c1C(=O)Nc1ccccc1OCC | inconclusive [activator, full curve] | 
COCCNC(=O)c1ccc2c(c1)NC(=O)CS2 |  | inactive: -11.2%
O=C(NCc1ccccn1)c1cc2c(ccc3ccccc32)oc1=O | inconclusive [activator, single point] | 
O=c1n(Cc2ccccc2F)c2ccccc2n1Cc1ccccc1F | inconclusive [activator, partial curve, poor fit] | 
CN1CCN(c2ccc(CNS(=O)(=O)c3ccccc3)cc2)CC1 | inconclusive [activator, full curve, poor fit] | 
Cc1csc(NC(=O)NCC2CCCC(CNC(=O)Nc3nc(C)cs3)C2)n1 (stereo not given) | inconclusive [activator, partial curve] | 
CCCCCn1c(=O)[nH]c2cc(C(=O)NCCCN(C)Cc3ccccc3)ccc2c1=O |  | inactive: 28.3%
CN(C)c1ccc(/C=N/NC(=O)c2ccc(Cn3cc(Br)cn3)o2)cc1 | inconclusive [activator, partial curve, poor fit] | 

SMILES | Potency | activity, positive = re-replication
O=C(CSc1nnc(Cn2nnc3ccccc32)o1)N(Cc1ccc(F)cc1)c1ccccc1 |  | inactive: 17.3%
CC(=O)N1CCc2cc(C(=O)CN3CCN(C(=O)c4ccco4)CC3)ccc21 | inconclusive [activator, single point] | 
COc1ccc2c(c1)CC/C(=C/c1ccccn1)C2=O | inconclusive [activator, single point] | 
CCCOc1ccc(NC(=O)C2CC(=O)N(C)C(=Nc3cccc(OC)c3)S2)cc1 (stereo not given) | inconclusive [activator, full curve, poor fit] | 
N#CC1c2ccccc2C=CN1C(=O)N(c1ccccc1)c1ccccc1 (stereo not given) | active: 3.26 µM | 
Cc1ccccc1NC(=O)CSc1nc2ccccc2o1 |  | inactive: -3.58%
O=C(CSc1ncnc2[nH]ncc12)Nc1nc(-c2ccc(F)c(F)c2)cs1 | inconclusive [activator, single point] | 
Cc1cc(C)n2c(SCC(=O)NCc3ccco3)nnc2n1 |  | inactive: 4.9%
O=C(NC1CCCCC1)c1ccc(S(=O)(=O)N2CCOCC2)cc1 | inconclusive [activator, single point] | 
O=S(=O)(NCc1ccccc1)c1ccc(S(=O)(=O)N(Cc2ccccn2)C2CCCC2)cc1 | inconclusive [activator, single point] | 
COc1cc(OC)nc(Oc2ccccc2/C=N/O)n1 |  | inactive: 8.9%
Cc1cc2nc(/C=C/c3cccnc3)[nH]c2cc1C | inconclusive [activator, full curve, poor fit] | 
CC(=O)Nc1ccc(N=C(C2=C(O)c3ccccc3C2=O)c2ccccc2)cc1 |  | inactive: 11%
Cc1ccccc1N1CCN(Cc2cccc(C(=O)O)c2)CC1 |  | inactive: 3.35%
CCOC(=O)[C@H](CCc1ccccc1)N[C@@H](C)C(=O)N1[C@H](C(=O)O)C[C@H]2CCCC[C@@H]21 |  | inactive: -0.652%
O=C(CSCc1ccc(Cl)cc1)N/N=C/c1ccccc1 |  | inactive: 4.02%
CC(C)CC(COCc1ccc(C(F)(F)F)cc1)N1CCN(C(=O)c2ccc(C(F)(F)F)cc2)CCC1=O (stereo not given) |  | inactive: 23.7%
CCCC(=O)c1ccc(N2CCN(C(=O)OCC)CC2)c(F)c1 | inconclusive [activator, single point] | 
O=C(NCc1ccco1)C1CC(c2ccc(C(F)(F)F)cc2)=NO1 (stereo not given) | inconclusive [activator, partial curve, poor fit] | 
CCOc1cc(S(=O)(=O)NCc2ccc(OC)cc2)c(OCC)cc1-n1cnnn1 | inconclusive [activator, single point] | 
CCN1CCN(Cc2ccc(NC(=O)c3ccc(C)c(NC(=O)c4cccc(-c5cn[nH]c(=O)c5)c4)c3)cc2C(F)(F)F)CC1 | inconclusive [activator, single point] | 
COc1ccc(C2C(C#N)=C(C)NC3=C2S(=O)(=O)c2ccccc23)cc1 (stereo not given) | inconclusive [activator, single point] | 
